Data reported in the supplement of paper PMC10338343.
± gives the standard deviation. Only a part is listed here, and it is no random draw.

What follows are sequences tested on MIWI (PIWIL1) piRISC loaded with piRNA #1 (30 nt) (assay: pre-steady-state target cleavage rate (min^-1); MIWI and MILI are mouse PIWI proteins and EfPiwi is from a freshwater sponge; tags in brackets are library labels; higher = faster piRNA-guided slicing of the target). Settings: guide: piRNA #1 5'p-UGAGGUAGUAGGUUGUAUAGUAUCCAGAGG; auxiliary factor: 500 nM mouse GTSF1.
How it was run: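 In this Cleave-'n-Seq assay, uncleaved targets were sequenced and normalised to depth and to weakly complementary targets. They came from a transcribed, DNA-blocked target RNA library […] mixed with 1 nM active affinity-purified piRISC carrying one synthetic guide, with or without 500 nM GTSF1 partner protein, in HEPES–potassium acetate buffer at 33 °C for 0–8 or 0–960 min. After three trials were pooled and k3 was capped at 0.0001 min^-1, the pre-steady-state cleavage rate was obtained from a burst-and-steady-state fit.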
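Also: 1 nM active piRISC with 0.1 nM target library at 33 °C single turnover.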

Sequence	pre-steady-state target cleavage rate
GGAGACCUAUGAUAUGUUCCUUCUAGCUCA	< 0.0001
GGAGACCUAACUAUACAACCUACUACCUUA	1.08 ± 0.12
GGAGUGGAUAAUAUACAACCUACUACCUCA	1.47 ± 0.077
GGUCUGGAUACUAUACUACCUUCUACCUCA	0.269 ± 0.027
GCUCUGGGAUACUAUACAACCUACUACCUCA	1.89 ± 0.096
CCUCUGGAUAGUAUACAACCUACAACCUCA	1.06 ± 0.079
CGUCUGGAUACUAUACAACCAACUACCUCA	0.113 ± 0.012
GGAGAGGAUACUAAUACAACCUACUACCUCA	1.18 ± 0.06
CGUCUGGAUACUAUACAACCUACUUCCUCA	0.626 ± 0.05
GGAGACCUUACUAUACAACGUACUAGCUCA	0.186 ± 0.033
GGUCUGGAUAUCUAUACAACCUACUACCUCA	0.818 ± 0.073
GGUCAGGAUACUAUACAACCUUCUACCUCA	0.64 ± 0.039
GGAGACCUAAGUAUUCAACCUACUACCUCA	0.00289 ± 0.0023
CCUCUGGAUACUAUACAACCAAGUACCUCA	0.0422 ± 0.01
GGAGAGGAUACUAUACUUCCUACUACCUCA	0.217 ± 0.026
GGAGACGAUACUAUGACAACCUACUACCUCA	1.59 ± 0.1
